Source: the supplement of paper PMC8728848
The other results are listed elsewhere or left out.

Legend:
Assay in all cases: glycan array binding signal (z-score within array); higher = stronger binding
Conditions in all cases: glycan notation: IUPAC condensed, linker removed
[1] = molecular target: 3dGal(b1-3)[Fuc(a1-4)]Glc
Summary of the method: (§1)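 The binding signal is a Z-score computed within each array and averaged over linkers. Arrays of the same protein sequence at different concentrations or buffers were also averaged together. Data originate from 3228 arrays in the Consortium for Functional Glycomics database, kept only where the protein sequence was available.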

3dGal(b1-4)Glc = molecular target: 3dGal(b1-4)Glc
Summary of the method: as §1

[2] = molecular target: 4d8dNeu5Ac(a2-3)Gal(b1-4)Glc
Summary of the method: as §1

[3] = molecular target: 4dNeu5Ac(a2-3)Gal(b1-4)Glc
Summary of the method: as §1

[4] = molecular target: 7dNeu5Ac(a2-3)Gal(b1-4)Glc
Summary of the method: as §1

[5] = molecular target: 8dNeu5Ac(a2-3)Gal(b1-4)Glc
Summary of the method: as §1

[6] = molecular target: 9dNeu5Ac(a2-3)Gal(b1-4)Glc
Summary of the method: as §1

[7] = molecular target: Ara(a1-5)Ara(a1-5)Ara(a1-5)Ara(a1-5)Ara(a1-5)Ara
Summary of the method: as §1

[8] = molecular target: Ara(a1-5)Ara(a1-5)Ara(a1-5)Ara(a1-5)Ara(a1-5)Ara(a1-5)Ara
Summary of the method: as §1

Fuc(a1-2)Gal = molecular target: Fuc(a1-2)Gal
Summary of the method: as §1

Fuc(a1-2)Gal(b1-3)GalNAc = molecular target: Fuc(a1-2)Gal(b1-3)GalNAc
Summary of the method: as §1

[9] = molecular target: Fuc(a1-2)Gal(b1-3)GalNAc(a1-3)[Fuc(a1-2)]Gal(b1-4)Glc
Summary of the method: as §1

[10] = molecular target: Fuc(a1-2)Gal(b1-3)GalNAc(a1-3)[Fuc(a1-2)]Gal(b1-4)GlcNAc
Summary of the method: as §1

[11] = molecular target: Fuc(a1-2)Gal(b1-3)GalNAc(b1-3)Gal
Summary of the method: as §1

[12] = molecular target: Fuc(a1-2)Gal(b1-3)GalNAc(b1-3)Gal(a1-4)Gal(b1-4)Glc
Summary of the method: as §1

[13] = molecular target: Fuc(a1-2)Gal(b1-3)GalNAc(b1-4)[Neu5Ac(a2-3)]Gal(b1-4)Glc
Summary of the method: as §1

Fuc(a1-2)Gal(b1-3)GlcNAc = molecular target: Fuc(a1-2)Gal(b1-3)GlcNAc
Summary of the method: as §1

[14] = molecular target: Fuc(a1-2)Gal(b1-3)GlcNAc(b1-2)Man(a1-3)[Fuc(a1-2)Gal(b1-3)GlcNAc(b1-2)Man(a1-6)]Man(b1-4)GlcNAc(b1-4)GlcNAc
Summary of the method: as §1

[15] = molecular target: Fuc(a1-2)Gal(b1-3)GlcNAc(b1-2)Man(a1-3)[Fuc(a1-2)Gal(b1-3)GlcNAc(b1-2)Man(a1-6)]Man(b1-4)GlcNAc(b1-4)[Fuc(a1-6)]GlcNAc
Summary of the method: as §1

[16] = molecular target: Fuc(a1-2)Gal(b1-3)GlcNAc(b1-3)Gal(b1-4)Glc
Summary of the method: as §1

[17] = molecular target: Fuc(a1-2)Gal(b1-3)GlcNAc(b1-3)GalNAc
Summary of the method: as §1

[18] = molecular target: Fuc(a1-2)Gal(b1-3)GlcNAc(b1-3)[Fuc(a1-2)Gal(b1-3)GlcNAc(b1-6)]GalNAc
Summary of the method: as §1

[19] = molecular target: Fuc(a1-2)Gal(b1-3)GlcNAc(b1-3)[Fuc(a1-3)[Gal(b1-4)]GlcNAc(b1-6)]Gal(b1-4)Glc
Summary of the method: as §1

[20] = molecular target: Fuc(a1-2)Gal(b1-3)GlcNAc(b1-3)[Gal(b1-4)GlcNAc(b1-6)]Gal(b1-4)Glc
Summary of the method: as §1

[21] = molecular target: Fuc(a1-2)Gal(b1-3)GlcNAc(b1-3)[Neu5Ac(a2-6)Gal(b1-4)GlcNAc(b1-6)]Gal(b1-4)Glc
Summary of the method: as §1

[22] = molecular target: Fuc(a1-2)Gal(b1-3)GlcNAc6S
Summary of the method: as §1

[23] = molecular target: Fuc(a1-2)Gal(b1-3)[Fuc(a1-4)]GlcNAc
Summary of the method: as §1

[24] = molecular target: Fuc(a1-2)Gal(b1-3)[Fuc(a1-4)]GlcNAc(b1-2)Man(a1-3)[Fuc(a1-2)Gal(b1-3)[Fuc(a1-4)]GlcNAc(b1-2)Man(a1-3)]Man(b1-4)GlcNAc(b1-4)GlcNAc
Summary of the method: as §1

[25] = molecular target: Fuc(a1-2)Gal(b1-3)[Fuc(a1-4)]GlcNAc(b1-2)Man(a1-3)[Fuc(a1-2)Gal(b1-3)[Fuc(a1-4)]GlcNAc(b1-2)Man(a1-6)]Man(b1-4)GlcNAc(b1-4)GlcNAc
Summary of the method: as §1

[26] = molecular target: Fuc(a1-2)Gal(b1-3)[Fuc(a1-4)]GlcNAc(b1-2)Man(a1-3)[Fuc(a1-2)Gal(b1-3)[Fuc(a1-4)]GlcNAc(b1-2)Man(a1-6)]Man(b1-4)GlcNAc(b1-4)[Fuc(a1-6)]GlcNAc(b1-4)[Fuc(a1-6)]GlcNAc
Summary of the method: as §1

[27] = molecular target: Fuc(a1-2)Gal(b1-3)[Fuc(a1-4)]GlcNAc(b1-3)Gal(b1-4)Glc
Summary of the method: as §1

[28] = molecular target: Fuc(a1-2)Gal(b1-3)[Fuc(a1-4)]GlcNAc(b1-3)Gal(b1-4)[Fuc(a1-3)]GlcNAc(b1-3)Gal(b1-4)Glc
Summary of the method: as §1

[29] = molecular target: Fuc(a1-2)Gal(b1-3)[Fuc(a1-4)]GlcNAc(b1-3)[Fuc(a1-2)]Gal(b1-4)Glc
Summary of the method: as §1

[30] = molecular target: Fuc(a1-2)Gal(b1-3)[Fuc(a1-4)]GlcNAc(b1-3)[Fuc(a1-3)[Gal(b1-4)]GlcNAc(b1-6)]Gal(b1-4)Glc
Summary of the method: as §1

[31] = molecular target: Fuc(a1-2)Gal(b1-3)[Fuc(a1-4)]GlcNAc(b1-3)[Gal(b1-4)GlcNAc(b1-6)]Gal(b1-4)Glc
Summary of the method: as §1

[32] = molecular target: Fuc(a1-2)Gal(b1-4)Fuc(a1-3)]GlcNAc(b1-2)Man(a1-3)[Fuc(a1-2)Gal(b1-4)[Fuc(a1-3)]GlcNAc(b1-2)Man(a1-6)]Man(b1-4)GlcNAc(b1-4)GlcNAc
Summary of the method: as §1

Fuc(a1-2)Gal(b1-4)Glc = molecular target: Fuc(a1-2)Gal(b1-4)Glc
Summary of the method: as §1

Fuc(a1-2)Gal(b1-4)Glc6S = molecular target: Fuc(a1-2)Gal(b1-4)Glc6S
Summary of the method: as §1

Fuc(a1-2)Gal(b1-4)GlcNAc = molecular target: Fuc(a1-2)Gal(b1-4)GlcNAc
Summary of the method: as §1

[33] = molecular target: Fuc(a1-2)Gal(b1-4)GlcNAc(b1-2)Man
Summary of the method: as §1

[34] = molecular target: Fuc(a1-2)Gal(b1-4)GlcNAc(b1-2)Man(a1-3)[Fuc(a1-2)Gal(b1-4)GlcNAc(b1-2)Man(a1-6)]Man(b1-4)GlcNAc(b1-4)GlcNAc
Summary of the method: as §1

[35] = molecular target: Fuc(a1-2)Gal(b1-4)GlcNAc(b1-2)Man(a1-3)[Fuc(a1-2)Gal(b1-4)GlcNAc(b1-2)Man(a1-6)]Man(b1-4)GlcNAc(b1-4)[Fuc(a1-6)]GlcNAc
Summary of the method: as §1

[36] = molecular target: Fuc(a1-2)Gal(b1-4)GlcNAc(b1-2)[Fuc(a1-2)Gal(b1-4)GlcNAc(b1-4)]Man(a1-3)[Fuc(a1-2)Gal(b1-4)GlcNAc(b1-2)Man(a1-6)]Man(b1-4)GlcNAc(b1-4)GlcNAc
Summary of the method: as §1

[37] = molecular target: Fuc(a1-2)Gal(b1-4)GlcNAc(b1-3)Gal(b1-4)GlcNAc
Summary of the method: as §1

[38] = molecular target: Fuc(a1-2)Gal(b1-4)GlcNAc(b1-3)Gal(b1-4)GlcNAc(b1-2)Man(a1-3)[Fuc(a1-2)Gal(b1-4)GlcNAc(b1-3)Gal(b1-4)GlcNAc(b1-2)Man(a1-6)]Man(b1-4)GlcNAc(b1-4)GlcNAc
Summary of the method: as §1

B1: PNA (Arachis hypogaea), P02872 (protein)
chain: MKPFCVFLTFFLLLAASSKKVDSAETVSFNFNSFSEGNPAINFQGDVTVLSNGNIQLTNLNKVNSVGRVLYAMPVRIWSSATGNVASFLTSFSFEMKDIKDYDPADGIIFFIAPEDTQIPAGSIGGGTLGVSDTKGAGHFVGVEFDTYSNSEYNDPPTDHVGIDVNSVDSVKTVPWNSVSGAVVKVTVIYDSSTKTLSVAVTNDNGDITTIAQVVDLKAKLPERVKFGFSASGSLGGRQIHLIRSWSFTSTLITTTRRSIDNNEKKIMNMASA
glycan array binding signal (z-score) [1]: -0.195 | glycan array binding signal (z-score) (3dGal(b1-4)Glc): -0.195 | glycan array binding signal (z-score) [2]: -0.195 | glycan array binding signal (z-score) [3]: -0.195 | glycan array binding signal (z-score) [4]: -0.195 | glycan array binding signal (z-score) [5]: -0.195 | glycan array binding signal (z-score) [6]: -0.195 | glycan array binding signal (z-score) [7]: -0.195 | glycan array binding signal (z-score) [8]: -0.195 | glycan array binding signal (z-score) (Fuc(a1-2)Gal): -0.186 | glycan array binding signal (z-score) (Fuc(a1-2)Gal(b1-3)GalNAc): -0.165 | glycan array binding signal (z-score) [9]: -0.156 | glycan array binding signal (z-score) [10]: -0.084 | glycan array binding signal (z-score) [11]: -0.152 | glycan array binding signal (z-score) [12]: -0.132 | glycan array binding signal (z-score) [13]: -0.153 | glycan array binding signal (z-score) (Fuc(a1-2)Gal(b1-3)GlcNAc): -0.181 | glycan array binding signal (z-score) [14]: -0.048 | glycan array binding signal (z-score) [15]: -0.204 | glycan array binding signal (z-score) [16]: -0.204 | glycan array binding signal (z-score) [17]: -0.26 | glycan array binding signal (z-score) [18]: -0.106 | glycan array binding signal (z-score) [19]: -0.174 | glycan array binding signal (z-score) [20]: -0.21 | glycan array binding signal (z-score) [21]: -0.266 | glycan array binding signal (z-score) [22]: -0.342 | glycan array binding signal (z-score) [23]: -0.155 | glycan array binding signal (z-score) [24]: -0.041 | glycan array binding signal (z-score) [25]: -0.129 | glycan array binding signal (z-score) [26]: -0.236 | glycan array binding signal (z-score) [27]: -0.195 | glycan array binding signal (z-score) [28]: -0.195 | glycan array binding signal (z-score) [29]: -0.195 | glycan array binding signal (z-score) [30]: -0.187 | glycan array binding signal (z-score) [31]: -0.127 | glycan array binding signal (z-score) [32]: 0.041 | glycan array binding signal (z-score) (Fuc(a1-2)Gal(b1-4)Glc): -0.105 | glycan array binding signal (z-score) (Fuc(a1-2)Gal(b1-4)Glc6S): -0.112 | glycan array binding signal (z-score) (Fuc(a1-2)Gal(b1-4)GlcNAc): -0.165 | glycan array binding signal (z-score) [33]: -0.224 | glycan array binding signal (z-score) [34]: -0.116 | glycan array binding signal (z-score) [35]: -0.236 | glycan array binding signal (z-score) [36]: -0.199 | glycan array binding signal (z-score) [37]: -0.144 | glycan array binding signal (z-score) [38]: -0.114
